Results reported in PubChem BioAssay AID651820 (National Center for Advancing Translational Sciences (NCATS), 2012).
Out of some 340,000 compounds screened, about 12,000 (3.5%) were called active. This list was built around the results that the source calls inconclusive (neither active nor inactive); the mix of calls is not that of the screen. Calls follow the shape of the dose curve; as a rule, active = well fitted inhibition curve with a large enough effect; inconclusive = small, poorly fitted or top-dose-only effect, or another doubt; inactive = no such curve, though single readings can be large or run the other way. Potencies of inconclusive entries are left out as doubtful fits.

Assay: qHTS Assay for Inhibitors of Hepatitis C Virus (HCV)
Settings: Huh7.5.1 HCVcc-Cre (HCVcc is cell-culture hepatitis C virus) infection, luciferase reporter, 44 h; series mostly up to 41.8 µM
In short: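 Whole-lifecycle infectious HCVcc-Cre system; cells 1,000/well, compound then virus (~0.5 moi) added 4 h after plating, 44 h culture. Luciferase read 15 sec following 15 min substrate incubation, room temp.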
Potency is read from the fitted curve at half-maximal effect; tags tell the direction and shape of the fitted curve.

Structure (SMILES) | Potency
O=[N+]([O-])c1cccc(S(=O)(=O)NCCc2ccccc2)c1 | inactive
CC(C)c1ccc(NC(=O)C2CC2c2ccccc2)cc1 (stereo not drawn) | inactive
Cc1nn(Cc2ccccc2)c2c1C(c1ccncc1)C(C#N)=C(N)O2 (stereo not drawn) | inactive
ON=C1c2ccccc2-c2ccccc21 | inconclusive [inhibitor, single point]
Nc1nc(-c2ccc(F)cc2)cc(C(F)(F)F)n1 | inconclusive [inhibitor, partial curve]
Cc1cccc(N(CC(=O)NCc2ccco2)C(=O)CCC(=O)Nc2ccccn2)c1C | inactive
COc1ccc(C(=O)NN=C(Cc2ccccc2)Cc2ccccc2)cc1OC | inactive
CCOc1ccc(NC(=O)c2cccc(-n3cccc3)c2)cc1S(=O)(=O)N1CCOCC1 | inactive
CCNc1nc(SCCOc2ccc(Cl)cc2Cl)nc(N(C)C)n1 | inconclusive [inhibitor, single point]
Cc1sc2nc(C(C)C)nc(SCC(=O)N3c4ccccc4CC3C)c2c1C (stereo not drawn) | inconclusive [inhibitor, partial curve, poor fit]
COc1cc(NC(=S)NCCC(c2ccccc2)c2ccccc2)c(OC)cc1Cl | inconclusive [inhibitor, single point]
Cc1cccc(NC(=O)c2cccc(S(=O)(=O)N3CCc4ccccc4C3)c2)n1 | inconclusive [inhibitor, single point]
O=C(O)c1ccc(/C=C/c2nc3ccccc3c(=O)n2-c2ccc(Br)cc2)cc1 | inactive
O=C(COC(=O)c1ccccc1Cl)NC1CCCCCCC1 | inactive
CCOC(=O)Cc1csc(NC(=O)c2csc(C)c2)n1 | inconclusive [inhibitor, single point]
CCC(C)[C@H]1COCCS(=O)(=O)N1Cc1ccc(Cl)cc1Cl (stereo partly drawn) | inconclusive [inhibitor, single point]
Cc1ccc(C(=O)NNC(=O)c2cccc(Br)c2)cc1 | inactive
Cc1ccc(C)c(C(=O)N(Cc2nc(-c3ccc(Cl)cc3)no2)C(C)C)c1 | active: 10 µM
Cc1cccc(CN2CCN(CC(=O)NCCCN3CCN(c4ccc(F)cc4)CC3)C2=O)c1 | active: 5.62 µM
COc1ccc(-c2nc(=S)[nH][nH]2)cc1OC | inactive
C[C@H](CO)N1C[C@H](C)[C@@H](CN(C)Cc2ccccc2)Oc2c(NS(=O)(=O)c3cn(C)cn3)cccc2C1=O | inconclusive [inhibitor, single point]
COCCNC(=O)CSc1nc2ccc(N3CCOCC3)cc2c(=O)n1Cc1ccc(OC)cc1 | inconclusive [inhibitor, single point]
O=C(COC(=O)CNC(=O)C1CCCCC1)Nc1ccc(Cl)cc1F | inactive
O=C(Cn1cnc2cc([N+](=O)[O-])ccc2c1=O)NC(c1ccccc1)c1ccccc1 | inconclusive [inhibitor, partial curve]

Structure (SMILES) | Potency
O=S(=O)(c1ccc(NC(=S)NN=Cc2ccccc2O)cc1)N1CCCCC1 | inconclusive [inhibitor, single point]
Nc1ccc(C2(c3ccc(N)cc3)c3ccccc3-c3ccccc32)cc1 | active: 8.91 µM
CCN1CCN(c2ncc3c(n2)CC(c2ccc(OC)c(OC)c2)CC3=O)CC1 (stereo not drawn) | inconclusive [inhibitor, partial curve]
CCCCC(=O)Nc1ccc(NC(=O)c2cccs2)cn1 | inactive
CNC(=O)COC(=O)c1ccccc1C(=O)c1ccc(Cl)c([N+](=O)[O-])c1 | inconclusive [inhibitor, partial curve]
O=C(COC(=O)c1cccnc1Cl)Nc1ccc(S(=O)(=O)N2CCOCC2)cc1 | inactive
COC(=O)c1cc(OC)c(OC)cc1NC(=O)c1ccco1 | active: 6.31 µM
CCCN1CCN(S(=O)(=O)c2ccc3c(c2)CC(C)N3C(=O)C2CC2)CC1 (stereo not drawn) | inactive
CCn1c(SCC(=O)Nc2ccc3c(c2)c2ccccc2n3CC)nnc1-c1cnccn1 | inconclusive [inhibitor, partial curve]
Cc1cc(NC(=O)CCl)no1 | inconclusive [inhibitor, single point]
COc1ccc(NC(=O)c2ccco2)cc1NC(=O)c1cc2ccccc2o1 | inconclusive [inhibitor, single point]
C=CCn1c(SCCN2CCCC2)nc2c([nH]c3ccccc32)c1=O | inactive
Cc1cc2nc(C3CCN(Cc4nnnn4Cc4cccs4)CC3)[nH]c2cc1C | active: 11.2 µM
O=C(Nc1cnn(Cc2ccc(Cl)cc2Cl)c1)c1noc2c1CCCC2 | inconclusive [inhibitor, single point]
CCc1onc(C)c1C(=O)Nc1cc(C)ccc1OC | inconclusive [inhibitor, partial curve]
COc1ccc(C(=O)NN/C(C)=C/C(=O)C(F)(F)C(F)(F)C(F)(F)F)cc1 | inactive
COc1cccc(C(=O)NC(=S)Nc2ccc(N(C)C)cc2)c1 | inactive
COc1ccc(NS(=O)(=O)c2ccc(N3CCCC3)c(NC(=S)Nc3ccc(SC(F)F)cc3)c2)cc1 | active: 22.4 µM
Cc1cc(C)cc(NC(=O)Nc2cc(S(=O)(=O)N(C)C)ccc2C)c1 | inconclusive [inhibitor, single point]
Cc1ccc(S(=O)(=O)N(C)Cc2ccc(C(=O)N/N=C/c3ccc(OC(F)F)cc3)cc2)cc1 | inconclusive [inhibitor, partial curve, poor fit]
Cc1cc(C)c(NC(=O)CS(=O)CC(=O)NC2CCCc3ccccc32)c(C)c1 (stereo not drawn) | inconclusive [inhibitor, single point]
O=C(/C=C/c1ccc(Cl)c(Cl)c1)N1CCc2ccccc21 | inactive
COc1ccc(-c2csc(N(CC3CCCO3)C(=O)c3ccco3)n2)cc1 (stereo not drawn) | inconclusive [inhibitor, single point]
CN1CCN(C(=O)c2ccc(COc3ccc(Cl)cc3Cl)cc2)CC1 | inconclusive [inhibitor, single point]
